# In all, about 360,000 compounds went through this assay and about 7,500 (2.1%) were called active. Inconclusive means that the source gave no clear call. Such entries were picked first, then a sample of the others. Calls follow the shape of the dose curve; as a rule, active = well fitted cell-killing curve with a large enough effect; inconclusive = small, poorly fitted or top-dose-only effect, or effect the other way, or another doubt; inactive = no such curve, though single readings can be large or run the other way. No potency is given beside an inconclusive call; the fits are too rough.
# Assay: qHTS for induction of synthetic lethality in tumor cells producing 2HG: qHTS for the HT-1080-IDH1KD cell line;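 as to activity, negative = toxicity: 0% = DMSO wells and -100% = cell-free medium wells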
# Conditions: HT-1080 IDH1 knockdown viability, ATP luminescence, 48 h; activity, negative = toxicity: at 46.1 µM (top of the series) unless noted
# In short: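 HT-1080-IDH1KD cells (IDH1 knocked down), 750/well in RPMI with 5% FBS, treated with compound 48 h at 37 degrees C. Viability by CellTiter-Glo luminescence, normalised to DMSO and no-cell wells; concentration-response curves classed.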
# Potency is read from the fitted curve at half-maximal effect; tags tell the direction and shape of the fitted curve.
SMILES,Potency,"activity, negative = toxicity"
CCN(CC)CCCN=C1N[C@@H](c2cccc(F)c2)C(C(=O)OC)=C(C)N1Cc1ccccc1,"inconclusive [cytotoxic, single point]",–
c1ccc(CNc2nc(-c3ccccn3)nc3ccccc23)cc1,"inconclusive [cytotoxic, partial curve]",–
COc1ccccc1CNS(=O)(=O)N(C)C,–,inconclusive: 30.6%
O=C(CN1C(=O)NC2(CCc3ccccc32)C1=O)NC1CCCCC1 (stereo unspecified),inactive,–
COc1cnc(-c2ccccn2)nc1Sc1cccc(Cl)c1,"inconclusive [cytotoxic, single point]",–
O=C(Nc1c[nH]c(=O)[nH]c1=O)c1ccccc1Cl,inactive,–
CCCCc1[nH]c(=O)c(C#N)c2c1CCCC2,"inconclusive [cytotoxic, single point]",–
CCCn1c(C)cc(C(=O)COC(=O)CN=C2NS(=O)(=O)c3ccccc32)c1C,inactive,–
O=C(Nc1nc2c(F)cc(F)cc2s1)c1ccccn1,active: 6.51 µM,–
O=C(Cc1cc(C(=O)O)c2ccccc2n1)Nc1ccccc1,"inconclusive [cytotoxic, single point]",–
C[C@@H](NC(=O)c1[nH]cnc1C(=O)Nc1ccon1)c1ccccc1,"inconclusive [cytotoxic, single point]",–
C=CCc1ccc(OCCCNCc2ccccc2)c(OC)c1,inactive,–
O=C1C(Cc2ccccc2)Nc2ncnc(N3CCCCC3)c2N1Cc1ccc(Br)cc1 (stereo unspecified),"inconclusive [cytotoxic, single point]",–
CC(=O)Nc1ccc(NC(=O)C/C(C)=N/NC(=O)c2cccc3ccccc23)cc1,"inconclusive [cytotoxic, partial curve]",–
Cn1c(C(=O)Nc2ccccc2)cc2sccc21,inactive,–
CCCCCCCn1c(=N)n(CC(O)c2ccco2)c2ccccc21 (stereo unspecified),active: 23.1 µM,–
Cc1ccnc(NC(=O)c2ccc(C(=O)c3ccccc3)cc2)c1,"inconclusive [cytotoxic, single point]",–
CC(C)C[C@@H](CN1CCCC1CN1C(=S)NC[C@@H]1Cc1ccc(O)cc1)N1C[C@H](Cc2ccc(O)cc2)N(CCc2ccccc2)C1=S (stereo partly specified),"inconclusive [cytotoxic, single point]",–
CC(C)(C)S(=O)N1Cc2cc(C(=O)NCCCN3CCOCC3)nc(-c3cccc(-c4cc5ccccc5o4)c3)c2[C@@H]1CCO (stereo partly specified),"inconclusive [cytotoxic, single point]",–
CCC(C(=O)N1CCN(c2cccc(Cl)c2)CC1)c1ccccc1 (stereo unspecified),"inconclusive [cytotoxic, single point]",–
CSc1nnc(C)c(/C=C/Nc2ccc(F)cc2)n1,"inconclusive [cytotoxic, single point]",–
Cc1cccc(NC(=O)c2nc[nH]c2C(=O)NCCCCCNC(=O)OC(C)(C)C)c1,"inconclusive [cytotoxic, partial curve]",–
O=C1C2CC=CCC2C(=O)N1Nc1ccccc1 (stereo unspecified),"inconclusive [cytotoxic, single point]",–
CC(=O)c1c(C)[nH]c(C(=O)OCC(=O)NCc2ccc(Cl)cc2)c1C,"inconclusive [cytotoxic, single point]",–

SMILES,Potency,"activity, negative = toxicity"
Cc1cc(C)c(NC(=O)CN(C)C(=O)CCC(=O)c2ccc(C)s2)c(C)c1,inactive,–
Cc1ccc(NC(=O)CSc2nc3ccccc3c(=O)n2CCCC(=O)NCCCN2CCOCC2)cc1C,"inconclusive [cytotoxic, single point]",–
CCC(=O)Nc1ccc(C(=O)Cn2ncc(Cl)c(Cl)c2=O)cc1,"inconclusive [cytotoxic, single point]",–
O=C(CC(=O)c1c(F)cccc1Cl)c1ccccc1O,–,inconclusive: -39.4% [cytotoxic]
O=C(Cn1cnc2c(NCc3ccccc3)ncnc21)NCc1ccccc1,active: 6.51 µM,–
COC(=O)C1=C(C)N(C)C(=O)NC1c1ccccc1 (stereo unspecified),inactive,–
O=C(COc1ccc2ccccc2c1)Nc1ccc2c3c(cccc13)CC2,"inconclusive [cytotoxic, single point]",–
CCOC(=O)Cc1c(C)nc2cc(-c3ccc(C(C)(C)C)cc3)[nH]n2c1=O,active: 1.26 µM,–
Cc1cccc(NS(=O)(=O)c2cc3c(cc2C)NC(=O)CO3)c1,inactive,–
CCCc1ccc(O)c(N=Cc2cc(Br)cc(OCC)c2O)c1,active: 23.1 µM,–
O=C(Nc1ccc(OC(F)(F)F)cc1)N1CCc2nc(NCc3cccc(Oc4ccccc4)c3)ncc2C1,active: 23.1 µM,–
CC1CCCC(C)N1S(=O)(=O)c1ccc(NC(=O)CNC2CCCC2)cc1 (stereo unspecified),"inconclusive [cytotoxic, partial curve]",–
CC1=C(C(=O)OC2CCCCCCC2)C(c2cccc(O)c2)NC(=O)N1 (stereo unspecified),"inconclusive [cytotoxic, single point]",–
Cc1ccc(/C=C/C(=O)N2CCN(c3cccc(C(F)(F)F)c3)CC2)cc1,"inconclusive [cytotoxic, single point]",–
NC(CCc1ccccc1)c1csc(NC(=O)Nc2cccc(C(F)(F)F)c2)n1 (stereo unspecified),active: 20.6 µM,–
COc1ccc(/C=C/C(=O)Nc2cccc(S(=O)(=O)N3CCOCC3)c2)cc1OC,inactive,–
Clc1ccc(/C=N\Nc2ccccc2)cc1,"inconclusive [cytotoxic, single point]",–
CC(=O)NCc1ccc(C(=O)CCl)cc1,"inconclusive [cytotoxic, single point]",–
Cc1ccc(C)c(N2CCN(C(=S)Nc3ccc4nc(N5CCOCC5)cc(C)c4c3)CC2)c1,inactive,–
COc1ccc(C(=O)Nc2cccc(-c3nnc(-c4ccco4)o3)c2)cc1,"inconclusive [cytotoxic, single point]",–
O=C(Nc1ccccc1F)N(CCCN1CCOCC1)Cc1cc2cc3c(cc2[nH]c1=O)OCCO3,"inconclusive [cytotoxic, partial curve]",–
O=C(CSC1CN(C(c2ccccc2)c2ccccc2)C1)N/N=C/c1ccccc1,active: 23.1 µM,–
COc1ccc(Cl)cc1C(=O)NCCN(C)C,inactive,–
CCn1cc([N+](=O)[O-])c(C(=O)N2N=C(c3cccc4ccccc34)CC2c2ccccc2O)n1 (stereo unspecified),active: 17.8 µM,–

SMILES,Potency,"activity, negative = toxicity"
CCOC(=O)c1c(C2COc3ccccc3O2)csc1NC(=O)c1ccco1 (stereo unspecified),inactive,–
Clc1cccc(CSc2nnc(-c3c[nH]c4ccccc34)o2)c1,"inconclusive [cytotoxic, single point]",–
Cc1ccc(C2Nc3ccc4ccccc4c3C3=C2C(=O)CC(C)(C)C3)o1 (stereo unspecified),"inconclusive [cytotoxic, partial curve]",–
CSCCC(NC(=O)c1ccccc1C)C(=O)O (stereo unspecified),inactive,–
COc1ccc(S(=O)(=O)N2CCOCC2)cc1NC(=O)CCNC(=O)c1ccc(Cl)cc1,"inconclusive [cytotoxic, partial curve]",–
CCN(c1ccc(OC)cc1)S(=O)(=O)N1CCCC(C(=O)NCc2ccc(OC(C)C)cc2)C1 (stereo unspecified),inactive,–
CCCc1c(-c2cccc(Cl)c2)ncn1CCc1ccccc1OC,"inconclusive [cytotoxic, single point]",–
O=C(N=Nc1c(O)[nH]c2ccc(Br)cc12)c1ccccc1-n1cccc1,active: 2.24 µM,–
Cc1c(C)c2ccc(OCC(=O)Nc3ccccn3)c(C)c2oc1=O,–,inconclusive: -15.8% [cytotoxic]
COc1ccc(/C=N/NC(=O)c2ccc(-n3cnnn3)cc2)cc1,"inconclusive [cytotoxic, partial curve, poor fit]",–
COc1ccc(Cl)cc1C=CC=Nc1ccc(S(N)(=O)=O)cc1,"inconclusive [cytotoxic, single point]",–
COc1ccc(-c2cc(C(=O)NC3=NCCS3)c3ccccc3n2)cc1OC,"inconclusive [cytotoxic, single point]",–
COc1ccc(Cl)cc1-c1cc(C(=O)NCc2cccc(C(F)(F)F)c2)[nH]n1,"inconclusive [cytotoxic, single point]",–
CCOC(=O)c1ccc(N2C(=O)[C@@H](c3ccccc3)[C@H]2c2ccccc2)cc1,"inconclusive [cytotoxic, single point]",–
NS(=O)(=O)c1ccc(NC(=O)Nc2cccc(Cl)c2)cc1,"inconclusive [cytotoxic, single point]",–
CCOc1ccc(NC(=O)CN(C)C(=O)CCCc2c[nH]c3ccccc23)cc1OCC,inactive,–
Cc1ccc([C@@H]2C[C@H]3[C@@H](CN2S(=O)(=O)c2ccc(C)cc2)C(=O)C[C@@H](c2ccccc2)N3S(=O)(=O)c2ccc(C)cc2)cc1,inactive,–
O=C(NCCO)c1c(-c2ccc3c(c2)OCO3)noc1-c1ccsc1,inactive,–
S=c1nc[nH]c2c1ncn2C1CCCO1 (stereo unspecified),active: 8.2 µM,–
CCN(CC)C(C(=O)Nc1ccc(C(C)C)cc1)c1ccc2c(c1)OCO2 (stereo unspecified),"inconclusive [cytotoxic, single point]",–
O=C(COc1ccc(F)cc1)Nc1nc(-c2ccccn2)cs1,"inconclusive [cytotoxic, single point]",–
COc1ccc2sc(-c3ccc(SC)cc3)c(-c3ccc(O)cc3)c2c1,"inconclusive [cytotoxic, single point]",–
CCOC(=O)/C(C#N)=C/c1cc(C)n(-c2ccc(C)cc2)c1C,"inconclusive [cytotoxic, single point]",–
